The full ranking holds about 81,000 sequences; the median of “one-hybrid fitness for binding parS DNA” is about -0.17, and the highest 2% start at about 0.51. Some of the results follow.
B1: Caulobacter ParB omega fusion; a variant is named by its letters at X, in order, B8GW30 (parent)
chain: MESVVVGEPGMSEGRRGLGRGLSALLGEVDAAPAQAPGEQLGGSREAPIEILQRNPDQPRRTFREEDLEDLSNSIREKGVLQPILVRPSPDTAGEYQIVAGERAWRAAQRAGLKTVPIMVRELDDLAVLEIGIIENVQRADLNVLEEALSYKVLMEKFERTQENIAQTIGKSXSHVANXMRLLXLPDEVQSYLVSGELTAXHARAIAAAADPVALAKQIIEGGLSVRETEALARKAPNLSAGKSKGGRPPRVKDTDTQALESDLSSVLGLDVSIDHRGSTGTLTITYATLEQLDDLCNRLTRGI

Variants of: B1
Assay: one-hybrid fitness for binding parS DNA (scaled: cognate 1, non-cognate 0); higher = stronger binding
Conditions: with parS DNA site
In short: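 Bacterial one-hybrid selection in E. coli USO rpoZ- hisB- pyrF- with a HIS3 reporter carrying the site 19 bp from the promoter, screening Caulobacter ParB libraries with four specificity codons randomised (NNS). Cells grew 48 hours at 37°C on M9-minus-histidine plus 0.1 mM IPTG and 5 mM 3-AT. Plasmids before and after selection were Illumina-sequenced, three replicate libraries pooled, and variants under 10 reads dropped. Fitness is the log change in variant-to-wild-type read ratio, rescaled to cognate 1, non-cognate 0.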

Variant | one-hybrid fitness for binding parS DNA
LTSA | ≤ 0.2
FRLC | ≤ 0.2
SYRV | ≤ 0.2
LRAC | ≤ 0.2
CETS | ≤ 0.2
WNPV | ≤ 0.2
NRQK | ≤ 0.2
RKDA | 0.536
PQSG | ≤ 0.2
RGMQ | ≤ 0.2
QGNI | ≤ 0.2
STGT | ≤ 0.2
TDCG | ≤ 0.2
RYNQ | ≤ 0.2
PNYC | ≤ 0.2
ETTT | ≤ 0.2
LGNW | ≤ 0.2
HCRR | ≤ 0.2
VMQT | ≤ 0.2
LYNV | ≤ 0.2
SPVY | ≤ 0.2
QKSI | ≤ 0.2
ARVG | ≤ 0.2
VKRM | ≤ 0.2
SEGC | ≤ 0.2

Variant | one-hybrid fitness for binding parS DNA
VVVK | ≤ 0.2
GNVS | ≤ 0.2
GKQC | ≤ 0.2
SIIL | ≤ 0.2
QQAF | ≤ 0.2
CRKC | ≤ 0.2
LDPS | ≤ 0.2
PLKH | ≤ 0.2
GAVW | ≤ 0.2
WTPG | ≤ 0.2
CPLQ | ≤ 0.2
DYKT | ≤ 0.2
QYHF | ≤ 0.2
RCNM | 0.349
EYKV | ≤ 0.2
WNVE | ≤ 0.2
SQPG | ≤ 0.2
QATG | ≤ 0.2
GFQR | ≤ 0.2
SNSP | ≤ 0.2
PVPT | ≤ 0.2
RQSM | 0.319
DLVL | ≤ 0.2
IAKC | ≤ 0.2
RFFS | 0.841

Variant | one-hybrid fitness for binding parS DNA
HYNC | ≤ 0.2
QCRW | ≤ 0.2
KSLM | ≤ 0.2
WHTT | ≤ 0.2
QLEE | ≤ 0.2
PLQV | ≤ 0.2
LHEE | ≤ 0.2
IPNY | ≤ 0.2
SITC | ≤ 0.2
TRRT | ≤ 0.2
HYLT | ≤ 0.2
DHHS | ≤ 0.2
CSSL | ≤ 0.2
TKWK | ≤ 0.2
ADYS | ≤ 0.2
PCRM | ≤ 0.2
RKLY | 0.402
YQQL | ≤ 0.2
PGCG | ≤ 0.2
PHVP | ≤ 0.2
FANV | ≤ 0.2
VMLT | ≤ 0.2
HAAF | ≤ 0.2
AKQS | ≤ 0.2
CTSS | ≤ 0.2

Variant | one-hybrid fitness for binding parS DNA
SHLF | ≤ 0.2
AEVC | ≤ 0.2
RPIC | ≤ 0.2
LDCR | ≤ 0.2
HGEG | ≤ 0.2
CLFT | ≤ 0.2
TNIN | ≤ 0.2
LQLR | ≤ 0.2
HVHY | ≤ 0.2
FSYN | ≤ 0.2
LDVV | ≤ 0.2
FVDV | ≤ 0.2
HLDP | ≤ 0.2
CTPE | ≤ 0.2
RDHM | ≤ 0.2
HVSD | ≤ 0.2
IKVA | ≤ 0.2
AHQC | ≤ 0.2
QQYI | ≤ 0.2
APMP | ≤ 0.2
RYSE | ≤ 0.2
RWMS | 0.788
DPWF | ≤ 0.2
LFYY | ≤ 0.2
ETAF | ≤ 0.2

Variant | one-hybrid fitness for binding parS DNA
ILFD | ≤ 0.2
HPYC | ≤ 0.2
MLIT | ≤ 0.2
AFGF | ≤ 0.2
RNSF | ≤ 0.2
DAME | ≤ 0.2
SHDP | ≤ 0.2
NHQG | ≤ 0.2
HLAL | ≤ 0.2
NACN | ≤ 0.2
VQLS | ≤ 0.2
VVTD | ≤ 0.2
AFHF | ≤ 0.2
VQTV | ≤ 0.2
KGKL | ≤ 0.2
AQVF | ≤ 0.2
FCDS | ≤ 0.2
SLDW | ≤ 0.2
PGYC | ≤ 0.2
RHRE | ≤ 0.2
VQMG | ≤ 0.2
SWLV | ≤ 0.2
QTTG | ≤ 0.2
HLHC | ≤ 0.2
TGYC | ≤ 0.2

Variant | one-hybrid fitness for binding parS DNA
RNGF | ≤ 0.2
DLLY | ≤ 0.2
HTAH | ≤ 0.2
RPSS | ≤ 0.2
LSIG | ≤ 0.2
DTWD | ≤ 0.2
RNLW | ≤ 0.2
SMHQ | ≤ 0.2
PGER | ≤ 0.2
MKAG | ≤ 0.2
QLLA | ≤ 0.2
RPAT | ≤ 0.2
MLDL | ≤ 0.2
PETI | ≤ 0.2
EVLW | ≤ 0.2
DQTY | ≤ 0.2
MVEC | ≤ 0.2
DESE | ≤ 0.2
AQAA | ≤ 0.2
QYRH | ≤ 0.2
NDYD | ≤ 0.2
HGAA | ≤ 0.2
SHNH | ≤ 0.2
RYLN | 0.396
GRDK | ≤ 0.2

Variant | one-hybrid fitness for binding parS DNA
HFNR | ≤ 0.2
VAYA | ≤ 0.2
WLAT | ≤ 0.2
RHDP | ≤ 0.2
SDSA | ≤ 0.2
KIQG | ≤ 0.2
LPCI | ≤ 0.2
GDHS | ≤ 0.2
DNTS | ≤ 0.2
YMNS | ≤ 0.2
RPAM | ≤ 0.2
LKER | ≤ 0.2
PLHI | ≤ 0.2
RTFH | 0.246
LICG | ≤ 0.2
VIFT | ≤ 0.2
QQMV | ≤ 0.2
LEFR | ≤ 0.2
PRSN | ≤ 0.2
QMLE | ≤ 0.2
RFAC | 0.91
KRDM | ≤ 0.2
EWQP | ≤ 0.2
GRSG | ≤ 0.2
HRTF | ≤ 0.2

Variant | one-hybrid fitness for binding parS DNA
SITN | ≤ 0.2
HPDW | ≤ 0.2
IIHR | ≤ 0.2
RVNR | ≤ 0.2
SWDR | ≤ 0.2
VVEP | ≤ 0.2
GLTV | ≤ 0.2
DQPG | ≤ 0.2
RYPH | ≤ 0.2
MNMT | ≤ 0.2
RPAF | ≤ 0.2
QSQG | ≤ 0.2
ADQW | ≤ 0.2
VRMF | ≤ 0.2
SSEV | ≤ 0.2
YTPF | ≤ 0.2
HEYW | ≤ 0.2
QGPC | ≤ 0.2
INRY | ≤ 0.2
KLHG | ≤ 0.2

Source: a collection of fitness landscapes (doi:10.1016/j.celrep.2020.107928)
